Results as given in the supplement of paper PMC7125110.
± gives the standard error. Variants at the background level are over-represented here.

B1: glmS ribozyme (parent)
chain: AUAAAAGCGCCAGAACUACAGAAAUGUAGUUGACGAGGAGGAGGUUUAUCGAAUUUUCGGCGGAUGCCUCCAAA

Variants of: B1
Test: self-cleavage kobs at 2500 uM GlcN6P; higher = faster cleavage; RNA array
Settings: with glucosamine-6-phosphate
Outline: (§1)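 Barcoded ribozyme variants, transcribed in situ by E. coli RNA polymerase on sequenced MiSeq chips, were followed via a hybridised Cy3 probe at 37 °C. Glucosamine-6-phosphate ranged from 40 μM to 10 mM in HEPES/KCl/Mg(OAc)2 buffer. kobs came from decay fits to per-tile medians, and kcat and KM from weighted Michaelis–Menten fits.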

| Variant | self-cleavage kobs at 2500 uM GlcN6P [s⁻¹] |
| --- | --- |
| A6C A12G G37A | < 1e-05 |
| A6C A14C C16G A64C | < 1e-05 |
| A6C A14C G60A G63A | < 1e-05 |
| A6C A14G G41A C68U | < 1e-05 |
| A6C A14G U46G A48U C58A | < 1e-05 |
| A6C A39C G60U | < 1e-05 |
| A6C C8A U31G G38C | < 1e-05 |
| A6C C34U U45A U46G G51U | < 1e-05 |
| A6C G7A G66C | < 1e-05 |
| A6C G7U U31A G37U | < 1e-05 |
| A6C G29A A36C G62A A64U | < 1e-05 |
| A6C U47C A53U | < 1e-05 |
| A6C U47C U54G C61G | < 1e-05 |
| A6G A39U U57G A64C | < 1e-05 |
| A6G C10A A12C U54G U57G | < 1e-05 |
| A6G C10U G35C U49C | < 1e-05 |
| A6G G43A U49A G59U | < 1e-05 |
| A6G U31C A33C | < 1e-05 |
| A6G U31C A36G A42U | < 1e-05 |
| A6G U45G G62U U65G | < 1e-05 |
| A6G U55A C61G | < 1e-05 |
| A6G U55C C71A | < 1e-05 |

| Variant | self-cleavage kobs at 2500 uM GlcN6P [s⁻¹] |
| --- | --- |
| A6U A12C A33U G44A G63U | < 1e-05 |
| A6U A15C G38U | < 1e-05 |
| A6U A36G G37U | < 1e-05 |
| A6U A42C U47A U49G U56C G63A | < 1e-05 |
| A6U A42G A48U | < 1e-05 |
| A6U A53U | 0.000114 ± 1.6e-05 |
| A6U C8G C34U A53C G66C C67A | < 1e-05 |
| A6U C8U G38A A48U | < 1e-05 |
| A6U C10A U31A U46C A48C | < 1e-05 |
| A6U C16A G29A A42G C71A | < 1e-05 |
| A6U G7A A14U G35A U54A | < 1e-05 |
| A6U G9A C61A | < 1e-05 |
| A6U G9C U65G | < 1e-05 |
| A6U G13A A14C A42C G60A C71A | < 1e-05 |
| A6U G13A A48G | < 1e-05 |
| A6U G13A U49C | < 1e-05 |
| A6U G29A C34U | < 1e-05 |
| A6U G37A C58U | < 1e-05 |
| A6U G37A U49C U54A | < 1e-05 |
| A6U G37U G40U | < 1e-05 |
| A6U G38C U69C | < 1e-05 |

Variants of: B1
Test: self-cleavage kobs at 10000 uM GlcN6P; higher = faster cleavage; RNA array
Settings: with glucosamine-6-phosphate
Outline: as §1

| Variant | self-cleavage kobs at 10000 uM GlcN6P [s⁻¹] |
| --- | --- |
| A6U A53U | 0.000159 ± 2.3e-05 |
| A6U G38C U69C | < 1e-05 |
